The results in this text go back to ChEMBL document CHEMBL1125073, “Antitubulin effects of derivatives of 3-demethylthiocolchicine, methylthio ethers of natural colchicinoids, and thioketones derived from thiocolchicine. Comparison with colchicinoids” (J Med Chem, 1990).

pIC50: −log10 of the molar value.

The species named for the first data set is Mus musculus.
Test: not given
Particulars: in vivo, im.
As for `CN[C@H]1CCc2cc(OC)c(OC)c(OC)c2-c2ccc(OC)c(=O)cc21` [DEMECOLCINE], the Toxicity was 237 mg/kg.

Regarding `COc1c(O)cc2c(c1OC)-c1ccc(OC)c(=O)cc1[C@@H](NC(C)=O)CC2` [3-DESMETHYLCOLCHICIN], the Toxicity was determined as 26 mg/kg.

For `COc1cc2c(c(OC)c1OC)-c1ccc(OC)c(=O)cc1[C@@H](N)CC2` [DEACETYLCOLCHICINE], the Toxicity was determined as 28 mg/kg.

A further data set has as its system L1210. Nature of the data set: cells. The settings on record: Mus musculus.
Broadly, the pIC50 is −log10 of the IC50, conventionally taken in molar units. Higher therefore signals a low IC50. In turn, `CCCC(=O)N[C@H]1CCc2cc(OC(C)=O)c(OC)c(OC)c2-c2ccc(SC)c(=O)cc21` gave a pIC50 of 7.15.

Regarding `CCOC(=O)Oc1cc2c(c(OC)c1OC)-c1ccc(SC)c(=O)cc1[C@@H](NC(C)=O)CC2`, the pIC50 is 7.40. This pIC50 is 0.25 log units higher than that of the compound before.

Consider `COc1c(O)cc2c(c1OC)-c1ccc(SC)c(=O)cc1[C@@H](NC(=O)C(F)(F)F)CC2`, for which the pIC50 is 8.00. This pIC50 is 0.60 log units higher than that of the compound before.

Regarding `CCCC(=O)N[C@H]1CCc2cc(OC(=O)CCC)c(OC)c(OC)c2-c2ccc(SC)c(=O)cc21`, the pIC50 was 7.15.

For the compound `CCCCOC(=O)N[C@H]1CCc2cc(OC)c(OC)c(OC)c2-c2ccc(OC)c(=O)cc21`, the pIC50 was 7.70. This pIC50 is 0.55 log units higher than that of the compound before.

With `CCCC(=O)Oc1cc2c(c(OC)c1OC)-c1ccc(SC)c(=O)cc1[C@@H](NC(C)=O)CC2`, the pIC50 is 7.52.

In the case of `CCCCOC(=O)Oc1cc2c(c(OC)c1OC)-c1ccc(SC)c(=O)cc1[C@@H](NC(C)=O)CC2`, the pIC50 was 7.52.

Take `COc1c(O)cc2c(c1OC)-c1ccc(SC)c(=O)cc1[C@@H](NC=O)CC2`: the pIC50 is 7.40.

`COc1cc2c(c(OC)c1OC)-c1ccc(SC)c(=O)cc1[C@@H](N)CC2` had a pIC50 of 7.40.

Regarding `CCCCOC(=O)N(C)[C@H]1CCc2cc(OC)c(OC)c(OC)c2-c2ccc(OC)c(=O)cc21`, the pIC50 is 7.15.

As to `CN[C@H]1CCc2cc(OC)c(OC)c(OC)c2-c2ccc(SC)c(=O)cc21`, the pIC50 was 7.70.

`COc1c(O)cc2c(c1OC)-c1ccc(SC)c(=O)cc1[C@@H](N(C)C(=O)C(F)(F)F)CC2`: the pIC50 was 8.15.

For the compound `CCCC(=O)N[C@H]1CCc2cc(O)c(OC)c(OC)c2-c2ccc(SC)c(=O)cc21`, the pIC50 is 7.22.

In turn, `CCOCC(=O)Oc1cc2c(c(OC)c1OC)-c1ccc(SC)c(=O)cc1[C@@H](NC(C)=O)CC2` showed a pIC50 of 7.52. Against the preceding compound, the pIC50 is 0.30 log units higher.
